# Source: PubChem BioAssay AID1508623 (National Center for Advancing Translational Sciences (NCATS), 2021)
# Screen size: about 48,000 compounds; about 450 (0.94%) were called active. Not shown: some 19% with an inconclusive outcome. The call rests on the fitted dose curve; in most records, active means well fitted inhibition curve with a large enough effect; inconclusive means small, poorly fitted or top-dose-only effect; inactive means no such curve, though single readings can be large or run the other way. Some of the results follow.
# Experiment: Primary qHTS for Identification of Small Molecule Inhibitors of Huntingtin Promoter Activity; further: nearly all actives have a fitted effect of over 50% in size
# Conditions: HEK293 HTT promoter firefly luciferase reporter (activity 0% = vehicle and -100% = no light), 24 h; series mostly up to 57.5 µM; activity change, negative = inhibition: at the top concentration
# Outline: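 HEK293 luciferase promoter-reporter cells (2,500/well) plated 24 h, then compounds added at up to 57.5 uM final for 24 h at 37 °C. Firefly luminescence by Dual-Glo, normalized to vehicle (0%) and zero RLU (-100%).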
# Potency means the concentration at half of the fitted maximal effect.
SMILES,Potency,"activity change, negative = inhibition"
Cc1cccc(N2CCN(C(=O)C3CCCN(S(=O)(=O)c4ccc5c(c4)oc(=O)n5C)C3)CC2)c1C (stereo not drawn),active: 5.01 µM,
COc1ccccc1NC(=O)C(C)Sc1nnc2ccc3ccccc3n12 (stereo not drawn),,inactive: -6.69%
Cc1ccc(CNC(=O)CN2C(=O)CCn3nc(-c4ccccc4)cc32)cc1,,inactive: -21%
Clc1ccc2c(c1)C(N1CCNCC1)=Nc1ccccc1O2,,inactive
CCc1cccc2c(-c3ccccc3)nc(SCC(=O)Nc3ccccc3OC)nc12,,inactive: -5.4%
CCCn1c(=O)c2sccc2n2c(CCCC(=O)NC3CCC(C)CC3)nnc12 (stereo not drawn),,inactive: -12.2%
CCCCC/C(C=O)=C\c1ccccc1,,inactive: 2.73%
O=C(O)CCc1nc(-c2ccccc2)c(-c2ccccc2)o1,,inactive: -7.76%
O=C(Cn1c(=O)c2cccn2c2ccc(F)cc21)N1CCN(c2ccccc2F)CC1,,inactive: 0.354%
CC(C)Nc1cc(C(F)(F)F)cc2nc(NC(=O)c3cccnc3)nn12,,inactive: 4.82%
Fc1ccc(-n2ncc3c(NCCCn4ccnc4)ncnc32)cc1,,inactive: 16.8%
COc1cccc(C2NC(=O)c3n[nH]c(-c4cccs4)c32)c1 (stereo not drawn),,inactive: -13.2%
COc1ccc(Br)cc1CNC(=O)c1cnc2sc(N3CCCC3)nn2c1=O,,inactive: -0.923%
CN1CCN(C(CNC(=O)c2ccccc2F)c2ccc3c(c2)OCO3)CC1 (stereo not drawn),,inactive: -10.9%
O=C(Cn1c(=O)nc(-c2ccccc2)c2ccccc21)NCCc1ccc(Cl)cc1,,inactive: -12.7%
Cc1cc2[nH]c(=O)c(=O)[nH]c2cc1S(=O)(=O)N1CCN(c2cccc(C(F)(F)F)c2)CC1,,inactive: 12.5%
CCCCN(CC)CCNC(=O)CCn1cnc2onc(-c3ccc(F)cc3)c2c1=O,,inactive: -0.879%
COc1ccc(NC(=O)c2sc3nc(-c4cc5ccc(OC)cc5oc4=O)[nH]c(=O)c3c2C)cc1,,inactive: -0.935%
Cc1cccc(-n2cc(-c3ccccc3)c3c(N4CCC(C)CC4)ncnc32)c1,,inactive: -21.9%
COc1ccc(-c2cn3nc(N4CCCC(C(=O)Nc5cc(C)ccc5C)C4)sc3n2)cc1 (stereo not drawn),,inactive: -10.4%
COc1cc(NC(=O)NCC2CCN(Cc3ccccc3Cl)CC2)cc(OC)c1OC,,inactive: -9.63%
CCOC(=O)c1ccccc1NC(=O)c1c(C)oc2ncnc(N3CCOCC3)c12,,inactive: -5.18%
COc1cccc(-n2c(=O)c3c(C)c(C)sc3n(Cc3ccccc3C#N)c2=O)c1,,inactive: -17.1%
COc1ccc(-c2nc3sc(CCNC(=O)C(=O)Nc4ccccc4C#N)c(C)n3n2)cc1,,inactive: -4.15%
COCCCNC(=O)c1ccc(Cn2c(=O)c3ccccc3n(Cc3ccc(Cl)cc3)c2=O)cc1,,inactive: -1.53%

SMILES,Potency,"activity change, negative = inhibition"
COc1ccc(CC(=O)NCC(c2cccs2)S(=O)(=O)c2ccc(F)cc2)cc1 (stereo not drawn),,inactive: -19.6%
Cc1ccc(C(=O)N(Cc2ccco2)c2ccccn2)cc1,,inactive: 17.5%
COc1cc(NC(=O)c2nn(C)c3c2COc2ccccc2-3)cc(OC)c1OC,,inactive: -11.2%
CCOc1ccccc1NC(=O)C1=C(C)Nc2ncnn2C1c1ccco1 (stereo not drawn),,inactive: -8.65%
COc1ccc(CCNC(=O)c2ccc(Cn3c(SCc4ccccc4)nc4cccnc43)cc2)cc1,,inactive: -29.6%
CC(C)c1cc(-c2nc(-c3ccc(Cl)cc3)no2)n[nH]1,,inactive: 8.11%
O=C(CCn1c(=O)c2ccccc2n(CC(=O)Nc2ccc(F)cc2)c1=O)NCCc1ccccc1,,inactive: -4.04%
Cc1cccc(NC(=O)Cn2c(=O)n(Cc3ccccc3)c(=O)c3oc4ccccc4c32)c1C,,inactive: -6.76%
CCc1ccc(C2CC(=O)Nc3c2c(=O)nc2c(C)cccn32)cc1 (stereo not drawn),,inactive: -7.37%
CC(C)c1ccc(NC(=O)c2ccc(CN3CC(=O)N4CCCCC4C3=O)cc2)cc1 (stereo not drawn),,inactive: -32.8%
COc1ccccc1C(=O)Nc1ccc(C(=O)OCc2cc(=O)n3c4c(sc3n2)CCCC4)cc1,,inactive: -19.2%
CCOc1ccc(C2C(C(N)=O)=C(C)Nc3nc(SCc4ccccc4F)nn32)cc1 (stereo not drawn),,inactive: -1.14%
COc1ccccc1NC(=O)c1cnn(-c2ccccc2)c1-n1cccc1,,inactive: -1.07%
O=C(O)CCn1ccc2cc(S(=O)(=O)N3CCCCCC3)ccc21,,inactive: -12.7%
CSc1ccc(CCNC(=O)c2csc3c2CCCCC3)cc1,,inactive: -24%
Cc1cccn2c(=O)c(C(=O)N3CCN(c4ccccc4)CC3)cnc12,,inactive: 36.4%
Cc1ccc(C(=O)c2c(N)c(C(=O)Nc3cccc(C(F)(F)F)c3)c3ccccn23)cc1,,inactive: -1.84%
CCCCOc1ccc(C(=O)Nc2cccc(-c3nc4ccccc4o3)c2C)cc1,,inactive: -4.1%
Cc1nc2nc(NCc3ccc(Br)cc3)[nH]n2c(=O)c1Cc1ccccc1,,inactive: -12.2%
CCCCC(CC)CNC(=O)CCCCCn1c(=O)[nH]c2ccsc2c1=O (stereo not drawn),,inactive: -29.1%
O=C(c1ccc2c(c1)N(Cc1ccc(Cl)cc1)C(=O)c1ccccc1S2(=O)=O)N1CCOCC1,,inactive: -9.92%
CCc1ccc(-n2c(=O)c3ccccc3n(Cc3ccccc3C#N)c2=O)cc1,,inactive: -9.83%
COc1cccc(C2C(C(N)=O)=C(C)Nc3ncnn32)c1 (stereo not drawn),,inactive: 4.63%
O=C(CSc1nc2c(oc3ccccc32)c(=O)n1-c1ccccc1)Nc1ccc(F)c(Cl)c1,,inactive: -16.9%
COc1ccc(OC)c(NC(=O)C2=C(C)C(=O)OC23CCN(C(C)C)CC3)c1,,inactive: -11.9%

SMILES,Potency,"activity change, negative = inhibition"
CCOC(=O)c1c(NC(C)=O)c2c3c(sc2n1Cc1cc(C)ccc1C)CCCC3,,inactive: -21.4%
CCOc1ccccc1NC(=O)Cn1c(=O)n(Cc2ccco2)c(=O)c2sc3ccccc3c21,,inactive: -20.1%
COc1ccccc1NS(=O)(=O)c1cn(C)c(C)n1,,inactive: -6.86%
COc1ccc(N2CC(NC(=O)COc3cccc(C)c3)CC2=O)cc1OC (stereo not drawn),,inactive: -9.03%
Cc1ccc(C)c(N2CCN(C(=O)Cn3nc(C)c4sc5ccccc5c4c3=O)CC2)c1,,inactive: -9.06%
Cc1c(C(C)C)c(=O)n(-c2ccccc2)n1C,,inactive: 3.15%
CCC(O)c1nc2ccccc2n1Cc1cc(C)ccc1C (stereo not drawn),,inactive: -12.2%
CCOc1ccc(NC(=O)CSc2nc3ccsc3c(=O)n2CCC(C)C)cc1,,inactive: 3.43%
Cc1ccc(NC(=O)C2CCN(S(=O)(=O)c3ccc4c(c3)CCCC(=O)N4)CC2)cc1N(C)C,,inactive: -35.3%
COc1ccc(OC)c(NC(=O)C(C)n2c(=O)c(-c3ccccc3NC(C)=O)nc3ccccc32)c1 (stereo not drawn),,inactive: -12.8%
COc1ccc(-c2nc(CSCC(=O)NCCC(C)C)c(C)o2)cc1OC,,inactive: -25.2%
O=C(CC1Sc2ccccc2NC1=O)Nc1cccc(C(F)(F)F)c1 (stereo not drawn),,inactive: -31.4%
COc1ccc(OC)c(CNC(=O)NCc2noc3ccc(C)cc23)c1,,inactive: -13%
CCN1C(=O)c2ccccc2S(=O)(=O)c2ccc(C(=O)NCc3ccccc3OC)cc21,,inactive: -14.3%
O=C(CSc1cn(CC(=O)N2CCCCC2)c2ccccc12)NCc1ccccc1Cl,,inactive: -21.2%
CC(C)c1ccc(NC(=O)c2cc3c(=O)[nH]c4ccccc4c3n2C)cc1,,inactive: 1.24%
Cc1ccc(-n2nc(C)c3c(C(=O)NCCc4ccc(S(N)(=O)=O)cc4)cc(C)nc32)cc1,,inactive: -16.9%
O=C(CN1C(=O)c2cccnc2Sc2ccccc21)Nc1cc(F)ccc1F,,inactive: -5.89%
CCCCN(C)CCCNC(=O)c1cn(CC)c2ccc(S(=O)(=O)N3CCc4ccccc4C3)cc2c1=O,,inactive: -3.09%
COc1ccccc1CNC(=O)c1cc(S(=O)(=O)N2CCCC(C)C2)cn1C (stereo not drawn),,inactive: -29%
Cc1ccc(-n2nc(C)c3c(C(F)(F)F)cc(-c4cccnc4)nc32)cc1C,,inactive: -10.9%
Cc1ccc2oc(-c3ccc(NC(=O)c4oc5ccc(Cl)cc5c4C)cc3)nc2c1,,inactive: 5.76%
Cc1cccc(NC(=O)Cn2c(SCC(=O)NCc3ccccc3)nc3ccccc32)c1C,,inactive: -21.9%
O=C(c1cnn(-c2ccc(F)cc2)c1-n1cccc1)N1CCN(c2ccccc2)CC1,,inactive: -12.6%
CCOc1ccc(-c2cn3nc(CC(C)C)sc3n2)cc1,,inactive: 52.8%

SMILES,Potency,"activity change, negative = inhibition"
CCOC(=O)c1ccc(N=C2SC(C(=O)Nc3ccccc3)CC(=O)N2C)cc1 (stereo not drawn),,inactive: -21.8%
COc1ccc(CNC(=O)C2(c3cccs3)CCOCC2)cc1,,inactive: -3.12%
O=C(CCCCCCC(=O)Nc1cccnc1)NO,,inactive: 182%
CCN(CC)S(=O)(=O)c1cccc(C(=O)Nc2ccccc2C(=O)Nc2ccc(OC)cc2)c1,,inactive: 2.09%
Cc1ccccc1-c1nc(CN2CCC(C(=O)NC(C)C)CC2)c(C)o1,,inactive: -3.17%
CCCCc1nn2c(=O)cc(COC(=O)CNC(=O)COc3ccc(C)cc3)nc2s1,,inactive: -26.7%
CCOc1ccc(NC(=O)c2c(NCc3cccs3)sc3c2CCC(C)C3)cc1 (stereo not drawn),,inactive: -23.4%
CCOC(=O)c1cc2c(=O)n3ccccc3nc2n(C(C)C)c1=NC(=O)c1c(-c2c(F)cccc2Cl)noc1C,,inactive: -23.7%
COc1ccc2c(c1)CC(C(=O)Nc1cc(OC)c(OC)c(OC)c1)CO2 (stereo not drawn),,inactive: -20.7%
CN(C)c1ccc(C(=O)NCc2ccc3c(c2)CCN3C(=O)c2ccc(Cl)cc2)cc1,,inactive: -7.83%
COc1ccc(Cl)cc1NC(=O)CCn1nc(C)cc1C,,inactive: 0.204%
COc1ccc(C(=O)NCc2ccc3c(c2)CCN3C(=O)c2ccc(Cl)cc2)c(OC)c1,,inactive: -16%
COc1cc(OC)cc(C(=O)Nc2cccc(-c3cn4ccsc4n3)c2)c1,,inactive: 17.3%
CC(C)OCCCn1c(SCc2ccccc2Cl)nc2c(sc3ccccc32)c1=O,,inactive: 1.71%
CCOc1ccc(NC(=O)CSc2cn(CC(=O)N3CCOCC3)c3ccccc23)cc1,,inactive: 6.22%
CCC1CN(C(=O)N2CCC(C(=O)NCCC3=CCCCC3)CC2)c2ccccc2O1 (stereo not drawn),,inactive: 12.5%
CCC(Cc1ccccc1)NC(=O)c1cccc(Nc2nc3ccccc3nc2-n2nc(C)cc2C)c1 (stereo not drawn),,inactive: -8.37%
CCC1CCCCN1C(=O)Cn1c(=O)n(-c2ccc(Cl)c(Cl)c2)c(=O)c2c(C)c(C(=O)N(C)C)sc21 (stereo not drawn),,inactive: -2.14%
COc1ccc(CCNC(=O)c2cc(=O)[nH]c3ccc(S(=O)(=O)N4CCCCC4)cc23)cc1OC,,inactive: -4.24%
CCOc1ccc(NC(=O)C2CCC(CNS(=O)(=O)c3ccc4c(c3)CCCC(=O)N4)CC2)cc1 (stereo not drawn),,inactive: -20.1%
CC(=O)Nc1c(C)nn(-c2ccccc2)c1N1CCC(C(=O)NCc2cccc(F)c2)CC1,,inactive: -17.5%
Cn1nc(C(=O)NCc2ccccc2Cl)c2c1-c1ccccc1SC2,,inactive: -6.48%
CCN(CC)c1nn2c(=O)c(C(=O)NCc3ccccc3Br)cnc2s1,,inactive: 5.32%
